Measurements: publication PMC9105235 (International Journal of Molecular Sciences, 2022)

Legend:
Luc-KLHL7 [1] = target: T1, Luc-KLHL7 (UniProt Q8IXQ5 1-586); test: FRET or BRET; BRET in HEK293 cells as a2, cells pretreated with the neddylation inhibitor MLN4924 (unneddylated CUL3); settings: partners not purified
T1 construct: KLHL7; also called KLHL7-luciferase; source: HEK293, transfected
T1 sequence (looked up): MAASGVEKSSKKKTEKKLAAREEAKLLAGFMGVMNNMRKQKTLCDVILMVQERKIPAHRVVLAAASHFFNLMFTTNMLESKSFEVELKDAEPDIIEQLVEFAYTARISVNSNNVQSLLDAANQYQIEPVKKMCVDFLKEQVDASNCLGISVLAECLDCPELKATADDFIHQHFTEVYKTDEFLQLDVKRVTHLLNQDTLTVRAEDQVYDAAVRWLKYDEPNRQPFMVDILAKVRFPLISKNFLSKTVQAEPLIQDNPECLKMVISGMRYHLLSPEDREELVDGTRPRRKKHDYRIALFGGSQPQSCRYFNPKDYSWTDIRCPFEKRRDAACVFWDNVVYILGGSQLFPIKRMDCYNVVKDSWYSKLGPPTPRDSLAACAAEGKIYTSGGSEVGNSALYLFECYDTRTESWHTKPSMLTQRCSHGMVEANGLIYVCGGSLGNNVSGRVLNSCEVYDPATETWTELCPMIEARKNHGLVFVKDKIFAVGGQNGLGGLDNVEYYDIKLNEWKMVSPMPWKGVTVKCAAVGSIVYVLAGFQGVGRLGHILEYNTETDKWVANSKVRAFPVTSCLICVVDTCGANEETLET

Luc-KLHL3 [2] = target: T2, Luc-KLHL3 (human, UniProt Q9UH77 1-587); test: as above; settings: partners not purified
T2 construct: KLHL3, human cDNA subcloned into phLuc; source: HEK293, transfected; not shown: luciferase, N-terminal, kept
T2 sequence (looked up): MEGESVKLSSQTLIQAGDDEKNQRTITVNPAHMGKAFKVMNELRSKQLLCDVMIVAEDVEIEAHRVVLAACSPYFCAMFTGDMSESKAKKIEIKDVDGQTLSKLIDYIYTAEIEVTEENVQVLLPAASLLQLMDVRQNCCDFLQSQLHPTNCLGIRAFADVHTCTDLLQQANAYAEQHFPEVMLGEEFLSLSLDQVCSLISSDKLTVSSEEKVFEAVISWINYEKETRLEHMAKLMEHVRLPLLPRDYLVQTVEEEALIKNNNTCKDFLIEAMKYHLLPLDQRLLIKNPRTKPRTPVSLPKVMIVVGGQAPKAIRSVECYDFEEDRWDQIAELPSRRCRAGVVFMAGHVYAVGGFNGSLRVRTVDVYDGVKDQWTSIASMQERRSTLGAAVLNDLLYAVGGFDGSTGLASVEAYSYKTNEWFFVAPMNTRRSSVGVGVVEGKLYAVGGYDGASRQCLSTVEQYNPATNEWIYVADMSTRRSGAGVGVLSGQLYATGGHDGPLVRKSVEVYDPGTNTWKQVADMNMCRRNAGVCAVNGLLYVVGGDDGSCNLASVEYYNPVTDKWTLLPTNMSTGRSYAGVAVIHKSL

nanoluc-Bacurd = target: T3, nanoluc-Bacurd (UniProt Q8WZ19 1-329); test: FRET or BRET; BRET in HEK293 cells, fixed amount of luciferase/NanoLuc donor, increasing amounts of YFP acceptor; BRET50 from the hyperbolic curve, apparent affinity; settings: partners not purified
T3 construct: Bacurd1 (the text names Bacurd1, the legend and methods only Bacurd); also called Bacurd1; Bacurd-luciferase; source: HEK293, transfected
T3 sequence (looked up): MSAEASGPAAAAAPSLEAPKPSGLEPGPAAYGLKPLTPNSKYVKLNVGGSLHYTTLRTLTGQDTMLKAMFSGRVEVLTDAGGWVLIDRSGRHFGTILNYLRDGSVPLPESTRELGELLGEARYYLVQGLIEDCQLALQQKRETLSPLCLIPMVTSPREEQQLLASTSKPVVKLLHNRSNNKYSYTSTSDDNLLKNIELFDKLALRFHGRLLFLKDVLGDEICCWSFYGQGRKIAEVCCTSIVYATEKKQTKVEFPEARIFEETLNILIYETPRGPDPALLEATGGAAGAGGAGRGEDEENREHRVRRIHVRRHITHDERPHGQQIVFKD

Luc-KLHL7 [3] = target: T1, Luc-KLHL7; test: as above; settings: partners not purified
Luc-KLHL3 [4] = target: T2, Luc-KLHL3; test: as above; settings: partners not purified
YFP-CUL3-WT = target: T4, YFP-CUL3-WT (human, UniProt Q13618); test: as above; settings: partners not purified
T4 construct: Cullin 3 (CUL3), human cDNA subcloned into pEYFP; In the dimerisation BRET one copy carried luciferase as donor (CUL3-Luc) and the other YFP as acceptor (YFP-CUL3); both copies are written as this one molecule; also called CUL3-Luc (donor copy in the dimerisation BRET); source: HEK293, transfected; not shown: YFP, N-terminal, kept

[5] = target: the molecule itself; test: as above

B1: YFP-CUL3-∆9 (natural protein, human)
chain: [about 20 residues omitted]MDEKYVNSIWDLLKNAIQEIQRKNNSGLSFEELYRNAYTMVLHKHGEKLYTGLREVVTEHLINKVREDVLNSLNNNFLQTLNQAWNDHQTAMVMIRDILMYMDRVYVQQNNVENVYNLGLIIFRDQVVRYGCIRDHLRQTLLDMIARERKGEVVDRGAIRNACQMLMILGLEGRSVYEEDFEAPFLEMSAEFFQMESQKFLAENSASVYIKKVEARINEEIERVMHCLDKSTEEPIVKVVERELISKHMKTIVEMENSGLVHMLKNGKTEDLGCMYKLFSRVPNGLKTMCECMSSYLREQGKALVSEEGEGKNPVDYIQGLLDLKSRFDRFLLESFNNDRLFKQTIAGDFEYFLNLNSRSPEYLSLFIDDKLKKGVKGTECGCQFTSKLEGMFRDMSISNTTMDEFRQHLQATGVSLGGVDLTVRVLTTGYWPTQSATPKCNIPPAPRHAFEIFRRFYLAKHSGRQLTLQHHMGSADLNATFYGPVKKEDGSEVGVGGAQVTGSNTRKHILQVSTFQMTILMLFNNREKYTFEEIQQETDIPERELVRALQSLACGKPTQRVLTKEPKSKEIENGHIFTVNDQFTSKLHRVKIQTVAAKQGESDPERKETRQKVDDDRKHEIEAAIVRIMKSRKKMQHNVLVAEVTQQLKARFLPSPVVIKKRIEGLIEREYLARTPEDRKVYTYVA
notes: Cullin 3 (CUL3), human cDNA subcloned into pEYFP, exon 9 (amino-acids […]) deleted; In the dimerisation BRET one copy carried luciferase as donor (Luc-CUL3-∆9) and the other YFP as acceptor (YFP-CUL3-∆9); both copies are written as this one molecule; also called Luc-CUL3-∆9 (donor copy in the dimerisation BRET); source: HEK293, transfected; not shown: YFP, N-terminal, kept
For B1, the BRET50 (Luc-KLHL7 [1]) was 2.41 ± 0.66 [Luc]/[YFP] ratio, the BRET50 (Luc-KLHL3 [2]) was 1.17 [Luc]/[YFP] ratio and the BRET50 (nanoluc-Bacurd) was 1.01 ± 0.2 [Luc]/[YFP] ratio. The BRET50 (Luc-KLHL7 [3]) was 2.71 ± 0.89 [Luc]/[YFP] ratio, the BRET50 (Luc-KLHL3 [4]) was 0.911 ± 0.33 [Luc]/[YFP] ratio and the BRET50 (YFP-CUL3-WT) was 0.45 [Luc]/[YFP] ratio. For the same binder, the BRET50 [5] was 1.27 [Luc]/[YFP] ratio.
